Test results from PubChem BioAssay AID588501 (NMMLSC, 2011).
Among all 360,000 compounds or so, about 420 (0.12%) were called active. Inconclusive means that the source gave no clear call. Such entries were picked first, then a sample of the others. Cut-off read from the data, not from the text of the source: active = inhibition above about 30%; inconclusive = no clear call, values can overlap the other calls; inactive = below that.

What follows are compounds tested against Lethal factor (Bacillus anthracis) (UniProt P15917) (assay: anthrax lethal factor cleavage blockers – biochemical, multiplex microsphere, MLPCN library, primary screen (AID 588501; note: plate controls were buffer without enzyme for full effect and enzyme alone for no effect)). Conditions: multiplex microsphere protease cleavage assay, LF; at 10 µM; stronger effect = higher value.

Compound | inhibition
O=C(O)c1cccc(OS(=O)(=O)c2cc(Br)ccc2Br)c1 | inactive: 7.9%
CSCCC(NC(=O)c1ccccc1Br)C(=O)NNC(=O)c1cc(C)oc1C (centres undefined) | inactive: -1.5%
Cc1cc(/C=C2/SC(=S)N(c3cccc(Cl)c3)C2=O)c(C)n1-c1cccnc1 | active: 51.3%
O=C(NCc1ccco1)C12CC3CC(C1)CC(C(=O)NCc1ccco1)(C3)C2 | inconclusive: -30.4%
CN1CCN(c2ccccc2NC(=O)c2ccc(-c3ccccc3[N+](=O)[O-])o2)CC1 | inconclusive: 2.2%
COCCNC(=O)/C=C/c1c(Cl)cccc1Cl | inactive: -0.4%
CNC(=O)C1(C(F)(F)F)C/C(=C\CCO)CCCO1 (centres undefined) | inactive: -9.9%
O=C(c1ccccc1)c1sc(N2CCCCCC2)nc1-c1ccccc1 | active: 33.7%
CC1=CC(C)(C)Nc2ccccc21 | inconclusive: 30.1%
C[C@H]1CN([C@@H](C)CO)C(=O)CCCn2cc(nn2)CO[C@@H]1CN(C)C(=O)CCC(F)(F)F | inactive: -0.7%
COc1ccc(/C=N/NC(=O)c2nn(-c3ccccc3)c(=O)c3c(N)scc23)cc1 | inconclusive: 2.4%
CCc1nc2ccc(C(=O)N3CCN(C(=O)c4ccco4)CC3)cn2c1N(C)Cc1cccs1 | inactive: -8.1%
Brc1ccc(NCc2cccc3ccccc23)nc1 | inconclusive: 5.3%
Cc1ccccc1NC(=O)COC(=O)CC1CCCC1 | inconclusive: 10.2%
CNC(=O)N1CCC(C(=O)c2c(C)c(C)c(C)c(C)c2C)CC1 | inactive: 14.1%
O=C(Nc1ccccc1C(=O)NCc1ccco1)NC1CCCCC1 | inactive: -0.5%
COc1ccc(C)cc1NC(=O)CN1CCN(C/C=C/c2ccccc2)CC1 | inconclusive: -20.4%
CCN1CCN(c2cc(C(C)C)nc3c(-c4ccccc4)c(C)nn23)CC1 | inconclusive: -21%
O=C1NCC(COCC2CC=CCC2)O1 (centres undefined) | inconclusive: -21.2%
COc1ccc([C@@]2(C(C)C)ON(c3ccccc3C(F)(F)F)C2=O)cc1 | inactive: -2%
Cc1ccc2nc3nc(NCC4CCCO4)c(C(=O)NC4CCCC4)cc3c(=O)n2c1 (centres undefined) | inactive: -1.7%
CC(C)OC(=O)NC(C)(C)COC(=O)Nc1cccc(Cl)c1 | inconclusive: -33.3%
CSc1sc(-c2nnc(SCC(=O)Nc3ccccc3)n2C)c2c1C=CCC2 | inconclusive: -12.7%

Compound | inhibition
COc1ccccc1-n1cc([C@@H]2C[C@H]3CN(c4ccccc4)C(=O)[C@]34CCCN24)cn1 | inconclusive: -29.2%
CCCCCN=Cc1c(C)[nH]n(-c2nc3ccccc3s2)c1=O | inconclusive: -0.4%
COc1ccc(N(C(=O)c2snc(C(N)=O)c2N)C(C(=O)NC2CCCC2)c2ccc3ncccc3c2)cc1 (centres undefined) | inactive: -9.8%
COC(=O)Cc1ccc(NC(=S)N2CCN(c3ccccn3)CC2)cc1 | active: 64%
COc1cccc(CNC(=O)c2ccc(OCC(=O)N3CCOCC3)c(OC)c2)c1 | inconclusive: -2.5%
COc1ccc(C(CNS(=O)(=O)c2ccc(C)cc2)N2CCN(C)CC2)cc1 (centres undefined) | inconclusive: -4.9%
O=C(COc1ccc(-n2cnnn2)cc1)Nc1cc(Cl)cc(Cl)c1 | inconclusive: -3%
COc1cc(/C=N/NC(=O)CNC(=O)c2ccncc2)ccc1O | inactive: 9.7%
O=C1OC(Nc2cc(Br)cc3cccnc23)c2ccccc21 (centres undefined) | inactive: -1.9%
CCOC(=O)C1=CCN(S(=O)(=O)c2ccccc2F)C1c1cccc(Cl)c1 (centres undefined) | inactive: -5.2%
C=CCN1C(=O)/C(=C/c2ccc(-c3ccc(F)cc3)o2)SC1=S | active: 63.7%
O=C(c1ccc(F)cc1)c1ccc(OCC(=O)N2CCOCC2)cc1 | inconclusive: -8.1%
Cc1cc(S(=O)(=O)Nc2ccc(C(=O)NCc3ccncc3)cc2)ccc1F | inconclusive: -3.7%
O=C(N/N=C/c1ccc(N2CCOCC2)cc1)c1ccccc1OCCOc1ccccc1 | inactive: -2.7%
O=C(CS(=O)(=O)Cc1ccccc1)Nc1nc2ccccc2s1 | inconclusive: -8.1%
Cc1ccccc1NC(=O)C(C)OC(=O)CCC(=O)N(CC(C)C)c1c(N)n(CC(C)C)c(=O)[nH]c1=O (centres undefined) | inconclusive: -1.2%
Fc1ccc(-c2nnn(Cc3nc4ccccc4s3)n2)cc1 | inconclusive: 14.6%
CCS(=O)(=O)CCSC1OC(COC(C)=O)C(OC(C)=O)C(OC(C)=O)C1OC(C)=O (centres undefined) | inactive: -4.1%
CCn1nc(-c2ccccc2)c2nc3ccccc3nc21 | active: 42.8%
NC1CCCCC1N=Cc1c(O)n(CCc2ccc(F)cc2)c(=O)[nH]c1=O (centres undefined) | inactive: -6.3%
CCCN(CC1CC1)C(=O)COC(=O)c1oc2ccc(OCC)cc2c1C | inconclusive: -5.3%
NC(=O)Nc1ccc(C(=O)OCC(=O)Nc2sccc2C(N)=O)cc1 | inconclusive: -3.3%
COc1ccc(-n2c(SCC(=O)N/N=C(\C)c3cccnc3)nc3ccccc3c2=O)cc1 | inconclusive: -16%

Compound | inhibition
COC(=O)c1nn(-c2ccc(Cl)cc2)c(=O)cc1Sc1ccccn1 | inconclusive: -22%
COc1nc(N2CCCCCC2)nc(N2CCCCCC2)n1 | inconclusive: 7.7%
O=C(NCCS(=O)(=O)N1CCN(c2ccc(F)cc2)CC1)C12CC3CC(CC(C3)C1)C2 | inconclusive: -2.1%
CC(=NCCC1=CCCCC1)c1c(O)n(-c2ccccc2)c(=O)[nH]c1=O | inconclusive: -19.9%
C(=C\c1ccccc1)/CN1CCN(C(c2ccnc3ccccc23)c2nnnn2C2CCCC2)CC1 (centres undefined) | inactive: 2.7%
Cc1ccc(S(=O)(=O)CCC(=O)Nc2cc(Cl)ccc2-n2cncn2)cc1 | inconclusive: 4.2%
COc1ccc(/C=C(/NC(=O)c2ccc(C)cc2)C(=O)N2CCCC2)cc1OC | inactive: 6.6%
COc1cc2cc(CCOC(=O)c3ccco3)oc(=O)c2cc1OC | inactive: -2.3%
CCCCn1c(N)c(N(CC(C)C)C(=O)C2CCCO2)c(=O)[nH]c1=O (centres undefined) | inconclusive: -7%
O=C(CN1CCC(C(=O)O)CC1)Nc1ccccc1Oc1ccccc1 | inconclusive: -19.4%
CCN1C(=O)/C(=C/C2=Cc3ccccc3OC2C)SC1=S (centres undefined) | inconclusive: -13.4%
O=C(C[n+]1cc(Br)cc2ccccc21)c1ccccc1 | active: 46.4%
CCOC(=O)N(CC)c1ccc(C(O)(C(=O)OC)C(F)(F)F)cc1 (centres undefined) | inconclusive: 2.7%
CC(=O)Nc1ccc(NC(=O)C(C)OC(=O)C23CC4CC(CC(Cl)(C4)C2)C3)cc1 (centres undefined) | inactive: 0.1%
CCCCn1c(N)c(N(CCOC)C(=O)c2cc3c(s2)CCC(C)C3)c(=O)[nH]c1=O (centres undefined) | inconclusive: -3.2%
CN(C)c1ccc(/C=C/C=C2/SC(=S)N(c3ccccc3)C2=O)cc1 | inconclusive: 45.1%
CC(=O)c1c(C)[nH]c(C(=O)NCc2ccccc2Cl)c1C | inconclusive: -15.8%
O=C(NC1CS(=O)(=O)CC1NCc1ccccc1)c1ccccc1 (centres undefined) | inactive: 5.2%
C=CCn1c(C)cc(C(=O)COC(=O)C2CC(=O)N(CCc3ccc(OC)c(OC)c3)C2)c1C (centres undefined) | inconclusive: -2.7%
Cc1ccc(S(=O)(=O)N2CC(O)C[C@H]2C(=O)OCC(=O)N2CCN(c3ccc(F)cc3)CC2)cc1C (some centres undefined) | active: 97.4%
O=S(=O)(N1CCCCC1)n1c(Cc2ccccc2)nc2ccccc21 | inactive: 3%
CCOC(=O)C1CCN(Cc2cnc(NC(=O)OC)s2)CC1 | inconclusive: 4.8%
O=C1CCCCCN1C(=O)c1ccccc1 | inconclusive: 1.5%

Compound | inhibition
CC1CCN(C(=O)C(=O)c2cn(CC(=O)N3CCCCCC3)c3ccccc23)CC1 | active: 37.6%
CN(CC(=O)NC1CCN(Cc2ccccc2)CC1)S(=O)(=O)c1ccc(Cl)cc1 | active: 54.2%
Cc1cccc(N2C(=O)CC(N(C(=O)c3ccco3)c3cccc(C)c3)C2=O)c1 (centres undefined) | inactive: -0.1%
O=C1C(Cl)=C(N2CCCC2)C(=O)N1c1ccc(F)cc1 | inactive: -11.6%
NS(=O)(=O)c1ccc(CNC(=O)Cc2ccsc2)cc1 | inactive: -1.6%
Cc1onc(-c2ccc(Cl)cc2)c1-c1ccnn1S(=O)(=O)c1ccc(Cl)cc1 | inconclusive: -17.7%
CCOC(=O)C1CCCN(C(=O)c2ccccc2Oc2ccccc2)C1 (centres undefined) | inconclusive: -20.6%
COc1cc2cc(CN(Cc3cccnc3)C(=O)NCc3ccccc3)c(=O)[nH]c2cc1OC | inactive: -1.7%
O=c1c2ccccc2nc(-c2ccccc2)n1-c1ccncc1 | inconclusive: -16.6%
NC(=O)C(c1ncc(C(F)(F)F)cc1Cl)c1c(Cl)cccc1Cl (centres undefined) | inconclusive: 12.7%
COc1cccc(C2CC(c3ccccc3)=NN2S(=O)(=O)c2ccc(C)cc2)c1OC (centres undefined) | active: 31.9%
COc1ccccc1-c1cc2c(c3c1ccn3C)C1CCC2C1 (centres undefined) | active: 29.9%
O=C(Nc1ccc(F)c(F)c1)c1cnc(-c2ccccc2)nc1-c1ccccc1 | inconclusive: -2.8%
Cc1cc(C)n(C2CC(=O)N(c3ccc(Cl)c(Cl)c3)C2=O)n1 (centres undefined) | inconclusive: -0.6%
COc1cccc(NC(=O)CSc2nnc(-c3cc(C)[nH]n3)n2N)c1 | inactive: 1.4%
CCCCc1ccc(NC(=O)CSc2nc(=O)n(CCCN3CCOCC3)c3c2CCC3)cc1 | inconclusive: -12.2%
O=C(CSc1ccccc1F)OCC(=O)N1CCN(C(=O)c2ccco2)CC1 | inconclusive: 0.6%
O=S(=O)(c1ccc(F)cc1)N1CC=C(c2ccccc2)CC1 | inconclusive: -15.6%
O=C(Nc1ccc(N2CCOCC2)cc1)c1csc([C@@H]2O[C@H](CO)[C@H](O)[C@H](O)[C@H]2O)n1 | inactive: -0.7%
N#C/C(=C\c1ccc(Cl)cc1)C(=O)Nc1cccnc1 | inactive: 8.6%
